Reference: PubChem BioAssay AID588855 (National Center for Advancing Translational Sciences (NCATS), 2011)
Several values for one entry are separate records, joined by “and”; a condition that tells them apart may be missing. Identical values can stand only once. Hit rate of the full screen: of about 410,000 compounds, about 5,000 (1.2%) were called active. The shares of active, inactive and inconclusive entries below differ from those in the screen. The call rests on the fitted dose curve; in most records, active means well fitted inhibition curve with a large enough effect; inconclusive means small, poorly fitted or top-dose-only effect; inactive means no such curve, though single readings can be large or run the other way. Where the call is inconclusive, the potency comes from a doubtful curve fit.

assay: qHTS for Inhibitors of TGF-b; details: HepG2 CAGA-GFP TGF-b/SMAD3 reporter, GFP fluorescence, 18 h, TGF-beta stimulated, 500 pg/mL final; series mostly up to 46.1 µM; activity, negative = inhibition: at the top concentration; further: nearly all actives have a fitted effect of over 65% in size
Outline: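 Read-out: total well GFP (ex488/em500-530) summed from mean per-cell fluorescence. Cells: HEPG2 CAGA-GFP, 1% FBS DMEM, 18 h at 37 degrees C with 500 pg/mL final TGF-beta. Unstimulated wells served as the full-inhibition control; stimulated DMSO wells = 0%.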
On the % scale 0 is the no-effect control and ±100 the full control effect; potency means the concentration at half of the fitted maximal effect; tags describe the fitted curve by direction and shape.

| SMILES | Potency | activity, negative = inhibition |
| --- | --- | --- |
| CCn1cc(C(=O)Nc2cccc(Cl)c2)c2cc(OC)c(OC)cc2c1=O | inconclusive: 15.8 µM [inhibitor, partial curve, poor fit] |  |
| Cc1cc(C)cc(NC(=O)CSc2nc3c(c(=O)[nH]2)CN(Cc2ccc(F)cc2)CC3)c1 | inconclusive: 15.8 µM [inhibitor, single point] and inconclusive: 5.01 µM [inhibitor, single point] |  |
| C[C@]12CCC(O)CC1=CCC1C2CC[C@]2(C)/C(=N\NC(N)=S)CCC12 (some centres undefined) |  | inactive: 6.75% |
| CSc1nsc(NC(=O)Nc2ccccc2)n1 | inconclusive: 35.5 µM [inhibitor, single point] |  |
| CCCCN(CC)CCNC(=O)C1CCN(S(=O)(=O)c2cccc3nsnc23)CC1 | inactive |  |
| C=C(c1ccc2nc(NC(=O)OC)[nH]c2c1)c1cccs1 | inconclusive: 15.8 µM [inhibitor, partial curve, poor fit] |  |
| O=C(Nc1ccc2c(c1)OCCO2)C(c1cc2ccccc2o1)N1CCN(C/C=C/c2ccccc2)CC1 (centres undefined) | inconclusive: 35.5 µM [inhibitor, single point] |  |
| COc1ccc(CN(C(=S)Nc2ccccc2)C2CC(=O)N(c3ccc(Cl)cc3)C2=O)cc1 (centres undefined) | inconclusive: 35.5 µM [inhibitor, single point] |  |
| FC(F)(F)c1ccc(CN2C[C@@H]3C(c4ccccc4)C4(c5cccnc5)CC3(C4)[C@H]2c2ccccc2)cc1 (some centres undefined) | inconclusive: 3.98 µM [inhibitor, full curve, poor fit] |  |
| O=C(NCc1ccccn1)C1Nc2ccc(C(F)(F)F)cc2C2C=CCC12 (centres undefined) | inconclusive: 3.98 µM [inhibitor, full curve, poor fit] |  |
| O=C(Nc1ccc(Cl)cc1)C1Cc2c(-c3ccc4c(c3)OCO4)ccnc2O1 (centres undefined) | inconclusive: 4.47 µM [inhibitor, single point] |  |
| CCN1CCN(Cc2ccc(NC(=O)c3cc(NC(=O)N4CCNC4=O)cc(OC)c3)cc2C(F)(F)F)CC1 | inconclusive: 15.8 µM [inhibitor, single point] and inconclusive: 35.5 µM [inhibitor, single point] |  |
| COc1cccc(CC2(CO)CCCN(Cc3cn[nH]c3-c3ccc(F)cc3)C2)c1 (centres undefined) | inconclusive: 35.5 µM [inhibitor, single point] |  |
| Cc1ccc(/C=N/N2CCN(C3c4ccccc4-c4ccccc43)CC2)o1 | inconclusive: 11.2 µM [inhibitor, single point] |  |
| C#CCNC(=O)C1=C[C@@H](c2csc3ccccc23)C[C@@H](OCc2ccc(CO)cc2)O1 | inconclusive: 22.4 µM [inhibitor, single point] |  |
| Cn1nc(-c2ccc(C(=O)Nc3cccc(Cl)c3)cc2)c2ccccc2c1=O |  | inactive: -9.43% |
| Nc1nc2c(s1)CC(c1ccccc1)CC2 (centres undefined) | inconclusive: 6.31 µM [inhibitor, single point] |  |
| CC(C)(C)NC(=O)CSc1nncn1-c1ccccc1 | inconclusive: 35.5 µM [inhibitor, single point] |  |
| Cc1ccc(S(=O)(=O)c2ccc([N+](=O)[O-])cn2)cc1 | active: 2.82 µM |  |
| CN(C)c1ccnc(N(Cc2ccccc2)Cc2ccccc2)c1C#N | inconclusive: 35.5 µM [inhibitor, single point] |  |
| O=S(=O)(c1ccccc1)N1CCN(c2ccnc3cc(Cl)ccc23)CC1 | inconclusive: 8.91 µM [inhibitor, partial curve, poor fit] |  |
| CC1=C(C(=O)OCC2CCCO2)C(c2cccc(C(F)(F)F)c2)C2=C(CC(c3ccco3)CC2=O)N1 (centres undefined) | inconclusive: 35.5 µM [inhibitor, single point] |  |

| SMILES | Potency | activity, negative = inhibition |
| --- | --- | --- |
| O=C(Nc1nc2ccc(F)cc2s1)c1ccc([N+](=O)[O-])o1 | active: 5.62 µM |  |
| CCOc1cc(CNCCc2ccc(S(N)(=O)=O)cc2)ccc1OCC(=O)NC(C)(C)C |  | inactive: 1.92% |
| CC(C)(C)c1ccc(C(=O)NCC(c2cccnc2)N2CCc3ccccc3C2)cc1 (centres undefined) | inconclusive: 17.8 µM [inhibitor, partial curve, poor fit] |  |
| C=CCn1c(-c2csc(-c3ccccc3)n2)n[nH]c1=S |  | inactive: -13.4% |
| CCOC(=O)C1(NC(=O)C2(NC(=O)CN3C(=O)c4ccccc4C3=O)CCCC2)CCCC1 |  | inactive: -0.223% |
| COc1ccc(NC(=O)[C@H](C)NC(=O)C2CCN(S(=O)(=O)c3ccc(C)cc3)CC2)cc1OC |  | inactive: -6.64% |
| CCC(C)N(C(=O)Cn1nnc(-c2ccc(F)cc2)n1)C1CCS(=O)(=O)C1 (centres undefined) |  | inactive: 2.31% |
| COc1cc(C(=O)NC(=S)NNC(=O)c2ccc3c(c2)OCO3)cc(OC)c1OC | inconclusive: 0.562 µM [inhibitor, full curve, poor fit] |  |
| COc1ccc2c(c1)c(CCNNC(=O)C(C)(C)C)c(C)n2C(=O)c1ccc(Cl)cc1 | inconclusive: 22.4 µM [inhibitor, single point] |  |
| CCOC(=O)c1cnc(-n2nc(C)cc2C)nc1Nc1cccc(C(C)=O)c1 | inconclusive: 7.08 µM [inhibitor, partial curve, poor fit] |  |
| Cc1cc(C)c(CN2CCC(n3nccc3NC(=O)C3CCCC3)CC2)cc1C | inconclusive: 22.4 µM [inhibitor, single point] |  |
| O=C1C[C@H]2C=CCc3cccc(c32)CN1Cc1ccccc1 | inconclusive: 12.6 µM [inhibitor, single point] |  |
| O=C(NCCCn1ccnc1)/C(=C\c1ccccc1Cl)NC(=O)c1ccccc1 | inconclusive: 6.31 µM [inhibitor, single point] |  |
| CC1CCCC(C)N1C(=O)CSCc1ccc(Cl)cc1 (centres undefined) |  | inactive: -3.15% |
| O=C(Nc1nncs1)C(Sc1ccccc1)c1ccccc1 (centres undefined) | inconclusive: 2 µM [inhibitor, partial curve, poor fit] |  |
| Cc1nn(Cc2ccc(Cl)c(Cl)c2)c(C)c1NC(=O)c1cc(CC(C)C)on1 | inconclusive: 25.1 µM [inhibitor, single point] |  |
| COc1ccc(OC(=O)c2nc(SCc3ccccc3F)ncc2Cl)cc1 |  | inactive: -6.94% |
| O=C(NCc1cccc(C(F)(F)F)c1)c1[nH]c(C(F)(F)F)nc1-c1ccccc1 | inconclusive: 15.8 µM [inhibitor, partial curve, poor fit] |  |
| O=C(N/N=C/c1cccc(F)c1)c1cc(-c2ccco2)nc2ccccc12 |  | inactive: 0% |
| CCN(CC)S(=O)(=O)c1ccc(Cl)c(NC(=O)CSc2cccc[n+]2[O-])c1 |  | inactive: -11% |
| CC(=O)Nc1cccc(C(=O)Nc2cccnc2)c1 | inconclusive: 3.16 µM [inhibitor, full curve, poor fit] |  |
| CCn1c(SCC(=O)Nc2cc(C)c(Cl)cc2OC)nnc1-c1ccco1 | inconclusive: 22.4 µM [inhibitor, single point] |  |

| SMILES | Potency | activity, negative = inhibition |
| --- | --- | --- |
| COC(=O)c1[nH]c2c(c1C)C(=O)CC(c1cccs1)C2 (centres undefined) | inconclusive: 3.55 µM [inhibitor, single point] |  |
| CCn1c(=O)n(Cc2ccco2)c(=N)c2c3c(sc21)COC(C)(C)C3 | inconclusive: 0.447 µM [inhibitor, full curve, poor fit] |  |
| Cc1nc2ccccc2c(=O)n1-c1ccc(NC(=O)c2ccccc2[N+](=O)[O-])cc1 |  | inactive: -10.9% |
| Cc1ccc(NC2=Nc3ccccc3N3C2=Nc2c(c(C)nn2-c2ccccc2)C3c2ccc(O)c(O)c2)cc1 (centres undefined) | inconclusive: 10 µM [inhibitor, partial curve, poor fit] |  |
| Cn1c(SCC(=O)OCC(=O)c2ccccc2)nnc1-c1cccs1 | inconclusive: 3.98 µM [inhibitor, single point] |  |
| Cc1ccc(-c2cc(C(=O)Oc3ccc(C#N)cc3)no2)cc1 | inconclusive: 0.112 µM [inhibitor, full curve, poor fit] |  |
| NC(=O)[C@H]1CC2(CC(c3cccc(NC(=O)[C@H]4CCC(=O)N4)c3)=NO2)CN1C(=O)c1ccccc1 (some centres undefined) |  | inactive: 1.65% |
| Cc1ccc(NC(=S)Nc2ccc(OC(F)F)c(Cl)c2)cc1F | inconclusive: 12.6 µM [inhibitor, partial curve, poor fit] |  |
| CCN(C(=O)C1CCN(S(=O)(=O)c2cc(Br)cc3c2N(C(C)=O)CC3)CC1)c1cccc(C)c1 | inconclusive: 22.4 µM [inhibitor, single point] |  |
| COc1cccc(CNc2nnnn2C)c1OC |  | inactive: 0% |
| O=C(CSc1nccn1-c1cccc(Cl)c1)Nc1ccc2c(c1)OCO2 |  | inactive: -24.3% |
| Nc1ccc(CC(N)c2csc(Nc3nncc4ccccc34)n2)cc1 (centres undefined) | inconclusive: 12.6 µM [inhibitor, single point] |  |
| Fc1ccc(CNCc2cccc(Br)c2)cc1 | inconclusive: 0.447 µM [inhibitor, partial curve, poor fit] |  |
| CC1CCN(S(=O)(=O)c2ccc(NC(=O)Cn3nnc(-c4ccccc4)n3)cc2)CC1 | inconclusive: 28.2 µM [inhibitor, single point] |  |
| COc1ccc(NC(=S)N/N=C/c2ccc(F)cc2)cc1OC | inconclusive: 35.5 µM [inhibitor, single point] |  |
| CCc1nn(CC(=O)N2CCN(c3ccc(OC)cc3)CC2)c(=O)c2cc3sccc3n12 | inconclusive: 2.82 µM [inhibitor, full curve, poor fit] |  |
| O=C(CSC1=NCCS1)Nc1ccc(S(=O)(=O)N2CCCCCC2)cc1 |  | inactive: 17.2% |
| Cc1nc2ccccc2c(=O)n1/N=C/c1ccc(O)cc1O |  | inactive: 3.59% |
| Cc1ccc(C(=O)NCCS(=O)(=O)N2CCN(c3ccccc3F)CC2)cc1[N+](=O)[O-] | inconclusive: 20 µM [inhibitor, single point] |  |
| COc1ccc(S(=O)(=O)N(C)CC(=O)NCCCn2ccnc2)cc1Cl |  | inactive: 32.7% |
